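In this assay, cells in 96-well plates receive the compound at five concentrations for 48 hours. Endpoints are linearly interpolated between the surrounding concentrations. GI50 marks 50% less growth. TGI denotes the concentration required for complete inhibition of growth.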
System: NCI-H322M lung
Test: inhibition of tumour cell growth, NCI panel, 48 h

Structure (SMILES) | GI50 [µM] | TGI [µM]
C/C(=N\Nc1ccc(S(N)(=O)=O)cc1)c1ccc(N=Nc2c(Nc3ccccc3)[nH][nH]c2=O)cc1 | 3.72 | 15.2
CC[C@]12C=CCN3CC[C@]4(C(=C(C(=O)OC)C1)Nc1cc(OC)c([C@@H]5[C@H]6O[C@H]6[C@@]6(CC)CC(C(=O)OC)=C7Nc8cc(O)ccc8[C@@]78CCN5[C@@H]68)cc14)[C@@H]32 | 11.1 | > 56.5

Reference: PubChem BioAssay (NCI)
